Results from the supplement of paper PMC4967469.

Legend:
Test in all cases: Viability of human cancer cell lines after 72 h of drug (GDSC screen)
QL-XI-92 = compound: C=CC(=O)Nc1cc(NC(=O)c2ccc(C)c(NC(=O)c3ccno3)c2)cc(C(F)(F)F)c1 [QL-XI-92]; details: top dose 10.24 µM; top dose inferred
Experimental: (§1)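 Human cancer cell lines in 384-well plates, medium with 10% serum, drug for 72 h over a 256-fold dose range (nine 2-fold or five 4-fold steps up to the top dose). Adherent lines were fixed and stained with the nucleic acid dye Syto60, suspension lines read with resazurin; signal relative to control wells, capped at 0 and 100%. One two-parameter sigmoid per drug and line, fitted in a mixed model over all curves with the slope shared within a line.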

NU-7441 = compound: O=c1cc(N2CCOCC2)oc2c(-c3cccc4c3sc3ccccc34)cccc12 [NU-7441]; details: top dose 2 µM; top dose inferred
Experimental: as §1

EHT 1864 = compound: O=c1cc(CN2CCOCC2)occ1OCCCCCSc1ccnc2cc(C(F)(F)F)ccc12 [EHT 1864]; details: top dose 10 µM; top dose inferred
Experimental: as §1

XL-184 = compound: COc1cc2nccc(Oc3ccc(NC(=O)C4(C(=O)Nc5ccc(F)cc5)CC4)cc3)c2cc1OC [XL-184]; details: top dose 5.12 µM; top dose inferred
Experimental: as §1

Phenformin = compound: N=C(N)NC(=N)NCCc1ccccc1 [Phenformin]; details: top dose 4000 µM; top dose inferred
Experimental: as §1

Vinorelbine = compound: CCC1=C[C@@H]2CN(C1)Cc1c([nH]c3ccccc13)[C@@](C(=O)OC)(c1cc3c(cc1OC)N(C)[C@H]1[C@@](O)(C(=O)OC)[C@H](OC(C)=O)[C@]4(CC)C=CCN5CC[C@]31[C@@H]54)C2 [Vinorelbine]; details: top dose 0.064 µM; top dose inferred
Experimental: as §1

Gefitinib = compound: COc1cc2ncnc(Nc3ccc(F)c(Cl)c3)c2cc1OCCCN1CCOCC1 [Gefitinib]; details: top dose 0.5 µM
Experimental: as §1

AG-014699 = compound: CNCc1ccc(-c2[nH]c3cc(F)cc4c3c2CCNC4=O)cc1 [AG-014699]; details: top dose 5 µM; top dose inferred
Experimental: as §1

WHI-P97 = compound: COc1cc2ncnc(Nc3cc(Br)c(O)c(Br)c3)c2cc1OC [WHI-P97]; details: top dose 10.24 µM; top dose inferred
Experimental: as §1

Cell Line	AUC (QL-XI-92)	IC50 (QL-XI-92) [µM]	AUC (NU-7441)	IC50 (NU-7441) [µM]	AUC (EHT 1864)	IC50 (EHT 1864) [µM]	AUC (XL-184)	IC50 (XL-184) [µM]	AUC (Phenformin)	IC50 (Phenformin) [µM]	AUC (Vinorelbine)	IC50 (Vinorelbine) [µM]	AUC (Gefitinib)	IC50 (Gefitinib) [µM]	AUC (AG-014699)	IC50 (AG-014699) [µM]	AUC (WHI-P97)	IC50 (WHI-P97) [µM]
Hs633T (fibrosarcoma, adherent)	0.984	> 10.2	0.916	> 2	0.985	> 10	0.925	> 5.12	0.968	> 4000	0.709	0.0137	0.982	> 0.5	0.95	> 5	0.969	> 10.2
Hs683 (glioma, adherent)	0.928	> 10.2	0.946	> 2	0.976	> 10	0.948	> 5.12	0.853	3170	0.509	0.00423	0.988	> 0.5	0.977	> 5	0.978	> 10.2
Hs766T (pancreas, adherent)	0.98	> 10.2	0.929	> 2	0.923	> 10	0.984	> 5.12	0.919	> 4000	0.921	> 0.064	0.968	> 0.5	0.984	> 5	0.984	> 10.2
Hs939-T (melanoma, adherent)	0.986	> 10.2	0.95	> 2	0.975	> 10	0.977	> 5.12	0.751	1420	0.777	0.0283	0.986	> 0.5	0.977	> 5	0.972	> 10.2
Hs-578-T (breast, adherent)	0.987	> 10.2	0.949	> 2	0.959	> 10	0.987	> 5.12	0.716	1070	0.98	> 0.064	0.982	> 0.5	0.978	> 5	0.987	> 10.2
HuCCT1 (biliary tract, adherent)	0.88	> 10.2	0.963	> 2	0.956	> 10	0.895	> 5.12	0.85	3590	0.486	0.00366	0.974	> 0.5	0.975	> 5	0.929	> 10.2
HuO9 (osteosarcoma, adherent)	0.888	> 10.2	0.901	> 2	0.939	> 10	0.825	3.53	0.179	23.5	0.581	0.00682	0.975	> 0.5	0.899	> 5	0.983	> 10.2
HuO-3N1 (osteosarcoma, adherent)	0.981	> 10.2	0.962	> 2	0.946	> 10	0.952	> 5.12	0.87	> 4000	0.692	0.0166	0.869	> 0.5	0.865	> 5	0.983	> 10.2
HuP-T3 (pancreas, adherent)	0.934	> 10.2	0.954	> 2	0.978	> 10	0.897	> 5.12	0.68	897	0.917	> 0.064	0.975	> 0.5	0.977	> 5	0.925	> 10.2
HuP-T4 (pancreas, adherent)	0.919	> 10.2	0.964	> 2	0.969	> 10	0.932	> 5.12	0.564	377	0.782	0.0286	0.938	> 0.5	0.959	> 5	0.884	> 10.2
IGR-1 (melanoma, adherent)	0.985	> 10.2	0.979	> 2	0.901	> 10	0.943	> 5.12	0.588	421	0.379	0.00195	0.984	> 0.5	0.976	> 5	0.988	> 10.2
IHH-4 (thyroid, semi-adherent)	0.947	> 10.2	0.955	> 2	0.962	> 10	0.992	> 5.12	0.948	> 4000	0.484	0.00364	0.993	> 0.5	0.974	> 5	0.984	> 10.2
IPC-298 (melanoma, adherent)	0.98	> 10.2	0.962	> 2	0.946	> 10	0.955	> 5.12	0.495	243	0.781	0.0261	0.987	> 0.5	0.973	> 5	0.979	> 10.2
JEG-3 (urogenital system, adherent)	0.991	> 10.2	0.986	> 2	0.983	> 10	0.991	> 5.12	0.883	3550	0.662	0.0108	0.985	> 0.5	0.956	> 5	0.991	> 10.2
JHH-1 (liver, adherent)	0.955	> 10.2	0.9	> 2	0.923	> 10	0.947	> 5.12	0.974	> 4000	0.6	0.00771	0.762	0.194	0.978	> 5	0.892	> 10.2
JHH-2 (liver, adherent)	0.95	> 10.2	0.926	> 2	0.902	> 10	0.917	> 5.12	0.962	> 4000	0.865	> 0.064	0.955	> 0.5	0.979	> 5	0.954	> 10.2
JHH-7 (liver, adherent)	0.936	> 10.2	0.973	> 2	0.906	> 10	0.956	> 5.12	0.953	> 4000	0.58	0.00652	0.989	> 0.5	0.969	> 5	0.976	> 10.2
JHU-011 (head and neck, adherent)	0.968	> 10.2	0.922	> 2	0.929	> 10	0.914	> 5.12	0.838	2630	0.443	0.0028	0.756	0.168	0.96	> 5	0.941	> 10.2
JHU-022 (head and neck, adherent)	0.982	> 10.2	0.94	> 2	0.944	> 10	0.981	> 5.12	0.979	> 4000	0.968	> 0.064	0.745	0.195	0.981	> 5	0.975	> 10.2
JIMT-1 (breast, adherent)	0.962	> 10.2	0.96	> 2	0.962	> 10	0.967	> 5.12	0.812	2350	0.527	0.00476	0.93	> 0.5	0.984	> 5	0.96	> 10.2
JURL-MK1 (chronic myeloid leukaemia, suspension)	0.842	7.17	0.983	> 2	0.907	> 10	0.633	0.743	0.831	2520	0.722	0.0169	0.909	> 0.5	0.987	> 5	0.931	> 10.2
K2 (melanoma, adherent)	0.976	> 10.2	0.981	> 2	0.975	> 10	0.942	> 5.12	0.786	2300	0.77	0.0316	0.982	> 0.5	0.982	> 5	0.948	> 10.2
KMH-2 (thyroid, adherent)	0.851	6.55	0.935	> 2	0.99	> 10	0.984	> 5.12	0.901	> 4000	0.402	0.00222	0.971	> 0.5	0.978	> 5	0.99	> 10.2
KMRC-1 (kidney, adherent)	0.987	> 10.2	0.981	> 2	0.972	> 10	0.966	> 5.12	0.918	> 4000	0.955	> 0.064	0.981	> 0.5	0.932	> 5	0.987	> 10.2
KMRC-20 (kidney, adherent)	0.988	> 10.2	0.954	> 2	0.954	> 10	0.986	> 5.12	0.936	> 4000	0.954	> 0.064	0.918	> 0.5	0.981	> 5	0.989	> 10.2
KON (head and neck, adherent)	0.986	> 10.2	0.961	> 2	0.971	> 10	0.987	> 5.12	0.926	> 4000	0.424	0.00249	0.978	> 0.5	0.914	> 5	0.985	> 10.2

The IC50 comes from the fitted curve, where viability falls to half of the control; a fit beyond the top or the lowest dose is shown as a bound at that dose. For AUC the same curve is integrated over the 256-fold range of doses and scaled to a fraction: 1 means no effect, lower means more sensitive. For part of these data: Any top dose called inferred comes from the curve model; the source does not state it.
